{"source": "PubChem BioAssay AID485364", "about": "(National Center for Advancing Translational Sciences (NCATS), 2010)", "note": "Hit rate of the full screen: of about 360,000 compounds, about 11,000 (3.1%) were called active. Inconclusive results, whose numbers are uncertain, are shown with a selection of clear calls. The call rests on the fitted dose curve; in most records, active means well fitted inhibition curve with a large enough effect; inconclusive means small, poorly fitted or top-dose-only effect; inactive means no such curve, though single readings can be large or run the other way. Potencies of inconclusive entries are left out as doubtful fits. Potency means the concentration at half of the fitted maximal effect; tags describe the fitted curve by direction and shape.", "data": [{"target": "Schistosoma mansoni thioredoxin glutathione reductase (TGR) (UniProt Q962Y6)", "assay": "qHTS Assay for the Inhibitors of Schistosoma Mansoni Peroxiredoxins; further: nearly all actives have a fitted effect of over 60% in size", "conditions": "purified TGR, DTNB reduction, TNB absorbance 405 nm; series mostly up to 114 µM", "outline": "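Kinetic colorimetric format: TGR-catalysed, NADPH-driven DTNB reduction monitored via TNB absorbance. Enzyme dispensed at 20 nM; compound exposure 15 min at room temperature before reaction start.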", "values": [{"smiles": "COCC(=O)Nc1cc(C)cn(Cc2ccccc2Cl)c1=O", "Potency": "inactive"}, {"smiles": "CC(=O)c1ccc(NC(=O)N2CCCC(C(=O)c3ccc4c(c3)OCO4)C2)cc1", "note": "(stereo not given)", "Potency": "inactive"}, {"smiles": "O=C(/C=C/c1ccc(Cl)c([N+](=O)[O-])c1)Nc1ccc(NC(=O)c2ccco2)cc1", "Potency": "inactive"}, {"smiles": "O=C(COc1ccc(F)cc1)NC1CC(=O)N(c2ccc3c(c2)OCCO3)C1", "note": "(stereo not given)", "Potency": "inactive"}, {"smiles": "CC1CC(C)(C)NC(=S)N1CCC(=O)Nc1ccc2c(c1)OCCO2", "note": "(stereo not given)", "Potency": "inactive"}, {"smiles": "COc1ccc(OC)c(S(=O)(=O)ON2C(=O)c3ccccc3C2=O)c1", "Potency": "active: 0.631 µM"}, {"smiles": "CCCCOC(=O)CNc1n[nH]c(=S)[nH]c1=O", "Potency": "inconclusive [inhibitor, single point]"}, {"smiles": "Cc1nnc(SCC(=O)Nc2cccc(C(F)(F)F)c2)n1Cc1ccco1", "Potency": "inconclusive [inhibitor, partial curve]"}, {"smiles": "O=C(CSc1nc(-c2cccs2)cc(C(F)(F)F)n1)NCc1ccco1", "Potency": "inconclusive [inhibitor, partial curve]"}, {"smiles": "Cc1ccc(-c2csc(N(CCCN(C)C)C(=O)c3ccco3)n2)cc1", "Potency": "inconclusive [inhibitor, full curve, poor fit]"}, {"smiles": "Cc1ccc(-c2cn3cccnc3n2)cc1NC(=O)Cc1ccccc1", "Potency": "inconclusive [inhibitor, single point]"}, {"smiles": "COCCN1C(=O)C(=O)/C(=C(/O)c2ccc(S(=O)(=O)N3CCOCC3)cc2)C1c1cccc(Cl)c1", "note": "(stereo not given)", "Potency": "inconclusive [inhibitor, single point]"}, {"smiles": "O=C(Cc1ccccc1)N1CCC(c2ccccc2)C1", "note": "(stereo not given)", "Potency": "inconclusive [inhibitor, partial curve]"}, {"smiles": "CCOC(=O)c1c(C)oc2c1c(C(c1ccccc1)N1CCOCC1)c(O)c1ccccc12", "note": "(stereo not given)", "Potency": "active: 10 µM"}, {"smiles": "CC(=O)N1CCN(c2ccccc2NC(=O)c2ccc(-c3cccc([N+](=O)[O-])c3)o2)CC1", "Potency": "inconclusive [inhibitor, partial curve]"}, {"smiles": "CCC(C(=O)Nc1c2c(nn1C(C)(C)C)CS(=O)(=O)C2)c1ccccc1", "note": "(stereo not given)", "Potency": "inconclusive [inhibitor, full curve, poor fit]"}, {"smiles": "Cc1sc2nc(-c3cccs3)nc(N3CCCN(C)CC3)c2c1C", "Potency": "active: 44.7 µM"}, {"smiles": "CCN1CCN(S(=O)(=O)c2ccc3[nH]c(=O)oc3c2)CC1", "Potency": "inactive"}, {"smiles": "COc1cc(-c2nnn(Cc3ccccc3C)n2)cc(OC)c1OC", "Potency": "inactive"}, {"smiles": "Cc1ccccc1NC1c2ccccc2C(=O)N1Cc1ccco1", "note": "(stereo not given)", "Potency": "active: 20 µM"}, {"smiles": "O=C1C(NS(=O)(=O)c2ccc(Cl)cc2)=C(N2CCCCC2)C(=O)c2ccccc21", "Potency": "inconclusive [inhibitor, partial curve]"}, {"smiles": "Cc1ccc(C)c(S(=O)(=O)N2CCCOC2CNC(=O)C(=O)NCc2cccs2)c1", "note": "(stereo not given)", "Potency": "inconclusive [inhibitor, full curve, poor fit]"}, {"smiles": "CCCCNC(=O)c1ccc2c(c1)NC(=O)C(CS(=O)(=O)Cc1ccc(F)cc1Cl)N2", "note": "(stereo not given)", "Potency": "inconclusive [inhibitor, partial curve]"}, {"smiles": "C=CCOc1ccc(/C(O)=C2/C(=O)C(=O)N(CCCn3ccnc3)C2c2ccco2)cc1", "note": "(stereo not given)", "Potency": "inconclusive [inhibitor, partial curve]"}, {"smiles": "CCCNC(=O)CS(=O)Cc1nc(-c2ccccc2C)oc1C", "note": "(stereo not given)", "Potency": "active: 50.1 µM"}, {"smiles": "Cc1ccc(Cl)cc1N1CCN(C(=O)C2CCCN(Cc3nc(-c4cccc(Cl)c4)oc3C)C2)CC1", "note": "(stereo not given)", "Potency": "inactive"}, {"smiles": "Cc1c(C(=O)Nc2ccc(-c3nnc4n3CCCCC4)cc2)oc2ccc(Br)cc12", "Potency": "inactive"}, {"smiles": "Cc1cccc(C2c3[nH]c4ccccc4c3CCN2C(=O)c2cc(-c3cccn3C)n[nH]2)n1", "note": "(stereo not given)", "Potency": "inconclusive [inhibitor, partial curve]"}, {"smiles": "CC(C)(C)C(=O)CN1CCN(S(=O)(=O)c2ccc(F)cc2)CC1", "Potency": "inconclusive [inhibitor, partial curve]"}, {"smiles": "Cc1cc(C)c(OCC(=O)N/N=C/c2ccco2)c(C)c1", "Potency": "inactive"}, {"smiles": "O=C(COC(=O)c1ccc([N+](=O)[O-])s1)Nc1ccccc1", "Potency": "inconclusive [inhibitor, full curve]"}, {"smiles": "O=C(NC(=S)Nc1ccc(S(=O)(=O)N2CCCCCC2)cc1)c1cccs1", "Potency": "inconclusive [inhibitor, partial curve]"}, {"smiles": "Cc1ccc(C)c(SCC(=O)NNC(=O)c2ccccc2)c1", "Potency": "inactive"}, {"smiles": "COc1ccc(CC(NC(C)=O)C(=O)NC2CCN(S(=O)(=O)c3ccc(NC(C)=O)cc3)CC2)cc1OC", "note": "(stereo not given)", "Potency": "inactive"}, {"smiles": "CCOc1c(Cl)cc(CNCC(O)c2ccccc2)cc1OC", "note": "(stereo not given)", "Potency": "inactive"}, {"smiles": "COc1ccc(CCNC(=O)CS(=O)(=O)Cc2nc(-c3ccc(C)cc3)oc2C)cc1OC", "Potency": "inconclusive [inhibitor, partial curve]"}, {"smiles": "S=C(Nc1ccccc1)Nc1ccc2cn[nH]c2c1", "Potency": "inconclusive [inhibitor, partial curve]"}, {"smiles": "OCC#CCSc1nnc(-c2ccncc2)o1", "Potency": "inconclusive [inhibitor, full curve]"}, {"smiles": "CCCCc1nnc(NC(=O)Cc2ccc(OC)c(S(=O)(=O)N3CCOCC3)c2)s1", "Potency": "inconclusive [inhibitor, partial curve]"}, {"smiles": "O=C(CCSCCC(=O)NCc1ccc(F)cc1)NCc1ccc(F)cc1", "Potency": "inconclusive [inhibitor, partial curve]"}, {"smiles": "CC(=O)O/N=C1\\C(=O)N(Cc2ccc(C)cc2)c2ccccc21", "Potency": "active: 15.8 µM"}, {"smiles": "COc1cccc(CNc2ccc3[nH]c(=O)[nH]c3c2)c1OCc1ccc(F)cc1", "Potency": "inconclusive [inhibitor, full curve]"}, {"smiles": "O=C(NCc1ccc(F)cc1)C(c1ccccc1)N(CC1CCCO1)C(=O)Cn1nnc2ccccc21", "note": "(stereo not given)", "Potency": "inconclusive [inhibitor, single point]"}, {"smiles": "N#CCCSc1ccccc1NC(=O)c1ccc(S(=O)(=O)N2CCCC2)cc1", "Potency": "inactive"}, {"smiles": "COc1ccc(Cn2c3nc4ccccc4nc3c3c(=O)n(Cc4ccco4)c(C)nc32)cc1", "Potency": "inconclusive [inhibitor, partial curve]"}]}]}
